Where only a bound is given, the exact number is not on record here.

The target in this assay is Noro protease (Norovirus, UniProt Q83883). Description: Norovirus protease inhibition assay (Noro-Norwalk FRET protease assay). The note with it: IC50 (μM), peptide substrate 10 μM, 90 minutes at 37° C., compounds 200 μM to 10.2 nM.
Compound `O=C[C@H](CC1CC2(CCCC2)NC1=O)NC(=O)[C@H](CC1CCCCC1)NC(=O)OC1CCCC1Cc1cccc(Cl)c1` (stereo partly drawn) [Compound C165, 2-(3-chlorobenzyl)cyclopentyl ((2S)-3-cyclohexyl-1-oxo-1-((1-oxo-3-(2-oxo-1-azaspiro[4.4]nonan-3-yl)propan-2-yl)amino)propan-2-yl)carbamate] displayed a half-maximal inhibitory concentration (IC50) of 5.5 µM.

The compound `CC(C)C[C@H](NC(=O)OC(c1ccccc1)C(C)(C)c1cccc(Cl)c1)C(=O)N[C@@H](C[C@@H]1CCNC1=O)C(=O)C(=O)NC1CC1` (stereo partly drawn) [Compound C166, 2-(3-Chlorophenyl)-2-methyl-1-phenylpropyl ((S)-1-(((S)-4-(cyclopropylamino)-3,4-dioxo-1-((S)-2-oxopyrrolidin-3-yl)butan-2-yl)amino)-4-methyl-1-oxopentan-2-yl)carbamate] showed a half-maximal inhibitory concentration (IC50) of 13.9 µM. As for `CC1(C)CC(C[C@H](NC(=O)[C@H](CC2CCCCC2)NC(=O)OC2CCCC2Cc2cccc(Cl)c2)C(=O)C(=O)NC2CC2)C(=O)N1` (stereo partly drawn) [Compound C167, 2-(3-Chlorobenzyl)cyclopentyl ((2S)-3-cyclohexyl-1-((4-(cyclopropylamino)-1-(5,5-dimethyl-2-oxopyrrolidin-3-yl)-3,4-dioxobutan-2-yl)amino)-1-oxopropan-2-yl)carbamate], the figure is 38.6 µM. As for `O=C(N[C@@H](CC1CCCCC1)C(=O)N[C@@H](CC1CC2(CCCCC2)NC1=O)C(=O)CO)OCc1cccc(Cl)c1` (stereo partly drawn) [Compound C168, 3-Chlorobenzyl ((2S)-3-cyclohexyl-1-(((2S)-4-hydroxy-3-oxo-1-(2-oxo-1-azaspiro[4.5]decan-3-yl)butan-2-yl)amino)-1-oxopropan-2-yl)carbamate], the figure is more than 200 µM; as for `CC(C)C[C@H](NC(=O)OC1(Cc2cccc(Cl)c2)CCC1)C(=O)N[C@@H](CC1CC2(CCOCC2)NC1=O)C(=O)C(=O)NC1CC1` (stereo partly drawn) [Compound C169, 1-(3-chlorobenzyl)cyclobutyl ((2S)-1-((4-(cyclopropylamino)-3,4-dioxo-1-(2-oxo-8-oxa-1-azaspiro[4.5]decan-3-yl)butan-2-yl)amino)-4-methyl-1-oxopentan-2-yl)carbamate], more than 200 µM; as for `CS(=O)(=O)N1CCC2(CC1)CC(C[C@H](NC(=O)[C@H](CC1CCCCC1)NC(=O)OCc1cccc(Cl)c1)C(=O)C(=O)NC1CC1)C(=O)N2` (stereo partly drawn) [Compound C170, 3-Chlorobenzyl ((2S)-3-cyclohexyl-1-(((2S)-4-(cyclopropylamino)-1-(8-(methylsulfonyl)-2-oxo-1,8-diazaspiro[4.5]decan-3-yl)-3,4-dioxobutan-2-yl)amino)-1-oxopropan-2-yl)carbamate], 52.5 µM. Consider `O=C(N[C@@H](CC1CCCCC1)C(=O)N[C@@H](CC1CC2(CCCCC2)NC1=O)C(=O)C(=O)N1CCCC1)c1cc2ccccc2[nH]1` (stereo partly drawn) [Compound C171, N-((2S)-3-cyclohexyl-1-((3,4-dioxo-1-(2-oxo-1-azaspiro[4.5]decan-3-yl)-4-(pyrrolidin-1-yl)butan-2-yl)amino)-1-oxopropan-2-yl)-1H-indole-2-carboxamide], for which the IC50 is more than 200 µM.

In turn, `CC1(C)CC(C[C@H](NC(=O)[C@H](CC2CCCCC2)NC(=O)OC(Cc2cccc(Cl)c2)c2cccc(Cl)c2)C(=O)C(=O)NC2CC2)C(=O)N1` (stereo partly drawn) [Compound C172, 1,2-Bis (3-Chlorophenyl) ethyl ((2S)-3-cyclohexyl-1-((4-(cyclopropylamino)-1-(5,5-dimethyl-2-oxopyrrolidin-3-yl)-3,4-dioxobutan-2-yl)amino)-1-oxopropan-2-yl)carbamate] came in with an IC50 of more than 200 µM. In the case of `O=C(N[C@@H](CC1CCCCC1)C(=O)N[C@@H](C[C@@H]1CCNC1=O)C(=O)C(=O)NC1CC1)OCc1cccc(Cl)c1` [Compound C173] it was 44 µM; in that of `CCCC[C@H](NC(=O)OC(c1ccccc1)C(C)(C)c1cccc(Cl)c1)C(=O)N[C@@H](CC1CCNC1=O)C(=O)C(=O)NC1CC1` (stereo partly drawn) [Compound C174, 2-(3-Chlorophenyl)-2-methyl-1-phenylpropyl ((S)-1-(((S)-4-(cyclopropylamino)-3,4-dioxo-1-((S)-2-oxopyrrolidin-3-yl)butan-2-yl)amino)-1-oxohexan-2-yl) carbamate], 57.9 µM.

As for `O=C(N[C@@H](CC1CCCCC1)C(=O)NC(CC1CC2(CCOCC2)NC1=O)C(=O)C(=O)NC1CC1)OCc1cccc(Cl)c1` (stereo partly drawn) [Compound C176, 3-Chlorobenzyl ((2S)-3-cyclohexyl-1-((4-(cyclopropylamino)-3,4-dioxo-1-(2-oxo-8-oxa-1-azaspiro[4.5]decan-3-yl)butan-2-yl)amino)-1-oxopropan-2-yl)carbamate], the concentration for half-maximal inhibition (IC50) came to 69.7 µM.

`CS(=O)(=O)N1CCC2(CC1)CC(CC(NC(=O)[C@H](CC1CCCCC1)NC(=O)OC1CCCC1Cc1cccc(Cl)c1)C(=O)C(=O)NC1CC1)C(=O)N2` (stereo partly drawn) [Compound C177, 2-(3-chlorobenzyl)cyclopentyl ((2S)-3-cyclohexyl-1-((4-(cyclopropylamino)-1-(8-(methylsulfonyl)-2-oxo-1,8-diazaspiro[4.5]decan-3-yl)-3,4-dioxobutan-2-yl)amino)-1-oxopropan-2-yl)carbamate] returned an IC50 of 100 µM. This IC50 and that of the compound before are within 1.5-fold of each other. Consider `CS(=O)(=O)N1CCC2(CC1)CC(C[C@@H](C=O)NC(=O)[C@H](CC1CCCCC1)NC(=O)OCc1cccc(Cl)c1)C(=O)N2` (stereo partly drawn) [Compound C178, 3-Chlorobenzyl ((2S)-3-cyclohexyl-1-(((2S)-1-(8-(methylsulfonyl)-2-oxo-1,8-diazaspiro[4.5]decan-3-yl)-3-oxopropan-2-yl)amino)-1-oxopropan-2-yl)carbamate], for which the IC50 was 3.5 µM. As for `COc1cccc2[nH]c(C(=O)N[C@@H](CC3CCCCC3)C(=O)NC(C=O)CC3CC4(CCOCC4)NC3=O)cc12` (stereo partly drawn) [Compound C179, N-((2S)-3-cyclohexyl-1-oxo-1-((1-oxo-3-(2-oxo-8-oxa-1-azaspiro[4.5]decan-3-yl)propan-2-yl)amino)propan-2-yl)-4-methoxy-1H-indole-2-carboxamide], the figure is 3.1 µM; as for `CC1(C)CC(CC(C=O)NC(=O)[C@H](CC2CCCCC2)NC(=O)OC(Cc2cccc(Cl)c2)c2ccccc2)C(=O)N1` (stereo partly drawn) [Compound C180, 2-(3-Chlorophenyl)-1-phenylethyl ((2S)-3-cyclohexyl-1-((1-(5,5-dimethyl-2-oxopyrrolidin-3-yl)-3-oxopropan-2-yl)amino)-1-oxopropan-2-yl) carbamate], 6.1 µM; as for `CC(C)(c1cccc(Cl)c1)[C@@H](OC(=O)N[C@@H](CC1CCCCC1)C(=O)N[C@@H](C[C@@H]1CCNC1=O)C(=O)C(N)=O)c1cccc(F)c1` [Compound C182], 106 µM. As for `CC(C)(c1cccc(Cl)c1)[C@H](OC(=O)N[C@@H](CC1CCCCC1)C(=O)N[C@@H](C[C@@H]1CCNC1=O)C(=O)C(N)=O)c1cccc(F)c1` [Compound C183], the figure is 16.2 µM; as for `CC(C)(c1cccc(Cl)c1)[C@@H](OC(=O)N[C@@H](CC1CCCCC1)C(=O)N[C@@H](C[C@@H]1CCNC1=O)C(=O)C(=O)NC1CC1)c1cccc(F)c1` [Compound C184, (S)-2-(3-chlorophenyl)-1-(3-fluorophenyl)-2-methylpropyl ((S)-3-cyclohexyl-1-(((S)-4-(cyclopropylamino)-3,4-dioxo-1-((S)-2-oxopyrrolidin-3-yl)butan-2-yl)amino)-1-oxopropan-2-yl)carbamate], 81.7 µM; as for `CC(C)(c1cccc(Cl)c1)[C@H](OC(=O)N[C@@H](CC1CCCCC1)C(=O)N[C@@H](C[C@@H]1CCNC1=O)C(=O)C(=O)NC1CC1)c1cccc(F)c1` [Compound C185, (R)-2-(3-chlorophenyl)-1-(3-fluorophenyl)-2-methylpropyl ((S)-3-cyclohexyl-1-(((S)-4-(cyclopropylamino)-3,4-dioxo-1-((S)-2-oxopyrrolidin-3-yl)butan-2-yl)amino)-1-oxopropan-2-yl)carbamate], 28.2 µM. As for `CC(C)(c1cccc(Cl)c1)C(OC(=O)N[C@@H](CC1CCCCC1)C(=O)N[C@@H](C[C@@H]1CCNC1=O)C(=O)C(=O)NC1CC1)c1ccccc1Cl` (stereo partly drawn) [Compound C186, 1-(2-Chlorophenyl)-2-(3-chlorophenyl)-2-methylpropyl ((S)-3-cyclohexyl-1-(((S)-4-(cyclopropylamino)-3,4-dioxo-1-((S)-2-oxopyrrolidin-3-yl)butan-2-yl)amino)-1-oxopropan-2-yl) carbamate], the figure is 30.8 µM. The compound `CC(C)C[C@H](NC(=O)OC(c1cccc(Cl)c1)C1(c2cccc(Cl)c2)CC1)C(=O)N[C@@H](C[C@@H]1CCNC1=O)C(=O)C(=O)NC1CC1` (stereo partly drawn) [Compound C187, (3-chlorophenyl)(1-(3-chlorophenyl)cyclopropyl)methyl ((S)-1-(((S)-4-(cyclopropylamino)-3,4-dioxo-1-((S)-2-oxopyrrolidin-3-yl)butan-2-yl)amino)-4-methyl-1-oxopentan-2-yl)carbamate] had a concentration for half-maximal inhibition (IC50) of 81.9 µM.

Compound `CC(C)(C)C(=O)N1CCC2(CC1)CC(CC(NC(=O)[C@H](CC1CCCCC1)NC(=O)OCc1cccc(Cl)c1)C(=O)C(=O)NC1CC1)C(=O)N2` (stereo partly drawn) [Compound C188, 3-Chlorobenzyl ((2S)-3-cyclohexyl-1-((4-(cyclopropylamino)-3,4-dioxo-1-(2-oxo-8-pivaloyl-1,8-diazaspiro[4.5]decan-3-yl)butan-2-yl)amino)-1-oxopropan-2-yl)carbamate] showed an IC50 of 46.6 µM. In the case of `CS(=O)(=O)N1CCC2(CC1)CC(CC(C=O)NC(=O)[C@H](CC1CCCCC1)NC(=O)OC1CCCC1Cc1cccc(Cl)c1)C(=O)N2` (stereo partly drawn) [Compound C189, 2-(3-Chlorobenzyl)cyclopentyl ((2S)-3-cyclohexyl-1-((1-(8-(methylsulfonyl)-2-oxo-1,8-diazaspiro[4.5]decan-3-yl)-3-oxopropan-2-yl)amino)-1-oxopropan-2-yl)carbamate] it was 3.3 µM; in that of `COc1cccc2[nH]c(C(=O)N[C@@H](CC3CCCCC3)C(=O)NC(CC3CC4(CCOCC4)NC3=O)C(=O)C(=O)NC3CC3)cc12` (stereo partly drawn) [Compound C191, N-((2S)-3-Cyclohexyl-1-((4-(cyclopropylamino)-3,4-dioxo-1-(2-oxo-8-oxa-1-azaspiro[4.5]decan-3-yl)butan-2-yl)amino)-1-oxopropan-2-yl)-4-methoxy-1H-indole-2-carboxamide], 91.9 µM.

Usually IC50 stands for the concentration at which inhibition is half-maximal. Lower therefore signals inhibition by little substance.

The record behind these values is patent US20230159453A1 (COCRYSTAL PHARMA, INC., priority 2020, published 2023).
